Laboratory results taken from PMC7819943, “Rice protein-binding microarrays: a tool to detect cis-acting elements near promoter regions in rice”.
The other results are listed elsewhere or left out.

What follows are sequences tested against T1, OsWOX13 (Oryza sativa, UniProt Q5QMM3 1-267) (assay: protein-binding microarray (RPBM); PBS, 2% BSA, 51.3 ng/ul salmon testes DNA, 50 uM zinc acetate, 200 nM TF, 25 C, 1 h; high values mean tight binding). Settings: protein: recombinant; tags: N-terminal polyhistidine and DsRed monomer fusion (pET32a); label: CyDye5-dUTP incorporated in the synthesized complementary strand; 3' TTTTT single-stranded linker to array surface; dsDNA, one strand shown.
T1 sequence: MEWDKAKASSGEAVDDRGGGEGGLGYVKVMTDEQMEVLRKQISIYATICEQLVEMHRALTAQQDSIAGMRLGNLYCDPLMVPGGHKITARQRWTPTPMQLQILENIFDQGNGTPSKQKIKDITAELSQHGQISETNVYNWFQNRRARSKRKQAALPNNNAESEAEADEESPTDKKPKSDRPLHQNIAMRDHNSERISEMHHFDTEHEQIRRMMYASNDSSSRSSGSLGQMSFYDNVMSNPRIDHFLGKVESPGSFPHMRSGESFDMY
Procedure, shortened: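 Using Ni–NTA, transcription factors fused N-terminally to polyhistidine and DsRed were purified after expression in E. coli BL21-CodonPlus. These were incubated at 200 nM with a blocked, double-stranded custom Agilent array for 1 h at 25 °C in a buffer containing 50 µM zinc acetate, and the array was washed. The binding signal is per-feature fluorescence intensity (arbitrary units) on an Axon 4000B scanner.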
With “CTTGATTGTATTTTAAACTTATTAGTGTGAATTTCGTTAACGGAGTCACCTAGTGCAG” the binding signal was 14600 fluorescence intensity (a.u.). “CGCGGAAACAATCATGTTCTATTATGCAGAGTAAAGACTTCGGAGTCACCTAGTGCAG” was tested, and the binding signal was 7280 fluorescence intensity (a.u.). For “CCTTAACGGGCTTTATTGCTGCTGAGATGAAATCATTGGCCGGAGTCACCTAGTGCAG”, the binding signal was 5450 fluorescence intensity (a.u.). With “TTAAATTTAATGCTACTTATCTCACATGATGTCTTGGATACGGAGTCACCTAGTGCAG” the binding signal was 9870 fluorescence intensity (a.u.). In the case of “GATTTGATAGGAGGATCGGTCCTAGCATCATACTACACGGCGGAGTCACCTAGTGCAG”, the binding signal is reported as 7100 fluorescence intensity (a.u.). For “TAAACTAATAACAAAATAAATTATAGATTCCACCTGTAAACGGAGTCACCTAGTGCAG”, the binding signal was 5400 fluorescence intensity (a.u.). With “TTTAAATTTGAATTCAAATATTTTCTATATATAGTATTTCCGGAGTCACCTAGTGCAG” the binding signal was 10900 fluorescence intensity (a.u.). In the case of “ATAGATAGATAGATAATAGATAGATAGAAGATAGATAGATCGGAGTCACCTAGTGCAG”, the binding signal is reported as 44600 fluorescence intensity (a.u.). With “GGAGACTCAATTAACGGCTAATTAAAACGACAAAAGCATTCGGAGTCACCTAGTGCAG” the binding signal was 35000 fluorescence intensity (a.u.). In the case of “ACCAAATCGCCGCGGTTGACTAATTACTTGATTTAGCCGCCGGAGTCACCTAGTGCAG”, the binding signal is reported as 4170 fluorescence intensity (a.u.). With “CAAATTAAAACATTTACAGCTTACATGACTAGCTACTGCTCGGAGTCACCTAGTGCAG” the binding signal was 6790 fluorescence intensity (a.u.). With “GTCTTGATCCATCCATCACCCACAATAATCCTAATCACAACGGAGTCACCTAGTGCAG” the binding signal was 3490 fluorescence intensity (a.u.). “CTAGTGAGGGGCGGGCGGGCGGGCAAGGGGAGCGGATGGGCGGAGTCACCTAGTGCAG” was tested, and the binding signal was 7420 fluorescence intensity (a.u.). With “AGCCTAGATTATCTCCAGTCTCCTCGGCCAATTCCCGACTCGGAGTCACCTAGTGCAG” the binding signal was 7180 fluorescence intensity (a.u.). “AACTTATTCCTTAATTAGTCACATAGCTCCGCTGGCCCATCGGAGTCACCTAGTGCAG” was tested, and the binding signal was 3690 fluorescence intensity (a.u.). “TCTCACATCAAGACCAATCAACTCATTTGGCTGTAGTTCGCGGAGTCACCTAGTGCAG” was tested, and the binding signal was 4880 fluorescence intensity (a.u.). With “CGGTGGATTGATTCCCAGATAGGCATTGACACCGACACCGCGGAGTCACCTAGTGCAG” the binding signal was 21000 fluorescence intensity (a.u.). In the case of “TTGCTGATTAATTTCTTTCCTAAAGCATACGGCATAATTCCGGAGTCACCTAGTGCAG”, the binding signal is reported as 18500 fluorescence intensity (a.u.). “GTGATAACTATGATTTGGGAGAAACGTTGACGATCCGACTCGGAGTCACCTAGTGCAG” was tested, and the binding signal was 17600 fluorescence intensity (a.u.). With “AATAACTAATTGCACATATTGCAACTAATTTACGAGATGACGGAGTCACCTAGTGCAG” the binding signal was 27900 fluorescence intensity (a.u.). With “TTTCCTAATTTCCCAGCTGACAGAAGGGTGTTGCTTGCAACGGAGTCACCTAGTGCAG” the binding signal was 8520 fluorescence intensity (a.u.). For “CGGGATTGTTGTTCTTAAATGTAAATCATCATCGTGAATTCGGAGTCACCTAGTGCAG”, the binding signal was 9260 fluorescence intensity (a.u.). For “TATCTACTAATTTAACTTATAAATGGGTTTATGGGTTGACCGGAGTCACCTAGTGCAG”, the binding signal was 11200 fluorescence intensity (a.u.). With “ATTAAACGGTTGAGATGATTGTTAATATAAATTTAGTAAGCGGAGTCACCTAGTGCAG” the binding signal was 14700 fluorescence intensity (a.u.). “ATTCAATCATGTTAGCCTCGGCGCGGGCTTCGTTGGAGAGCGGAGTCACCTAGTGCAG” was tested, and the binding signal was 21100 fluorescence intensity (a.u.). “TTTCCAAATTAGCATGGTGCGATTGAGAAATCAAAATGATCGGAGTCACCTAGTGCAG” was tested, and the binding signal was 10100 fluorescence intensity (a.u.). For “ATAGATAGATGGCTCGTCTCCTCAATCCAATCTTGCCGCTCGGAGTCACCTAGTGCAG”, the binding signal was 7490 fluorescence intensity (a.u.). “GTTGCTCATGACTGAACTTAATTATAGTCTCACGAAGGAACGGAGTCACCTAGTGCAG” was tested, and the binding signal was 11600 fluorescence intensity (a.u.). For “AAGATTGATCATAATAAGGATCTCCGCAAGGAAGTCTTCACGGAGTCACCTAGTGCAG”, the binding signal was 28100 fluorescence intensity (a.u.). For “TATTTTGATTAAAATATACCGAATTATGACCAAATTTTCACGGAGTCACCTAGTGCAG”, the binding signal was 20100 fluorescence intensity (a.u.). With “ACAAATTAACAAGTGCATATTCGCATTGCAGCATGATCTACGGAGTCACCTAGTGCAG” the binding signal was 13900 fluorescence intensity (a.u.). “ATGTAAATTGAGTACAAATCGATTAGTGAACGTATTTATACGGAGTCACCTAGTGCAG” was tested, and the binding signal was 9870 fluorescence intensity (a.u.). With “TGTAGTTGGATTGACAAATTTTAACCATGAATCAAATTAACGGAGTCACCTAGTGCAG” the binding signal was 20100 fluorescence intensity (a.u.). With “CCATTAATTAATTAACCTGCAGCCTCAATTATTTGGTCTCCGGAGTCACCTAGTGCAG” the binding signal was 57600 fluorescence intensity (a.u.). In the case of “CACACCATAATTGAAAGTTTGAATAAATTAAAACGATGGGCGGAGTCACCTAGTGCAG”, the binding signal is reported as 43200 fluorescence intensity (a.u.). In the case of “GGCCTAATTAAGTTAGATTAACTAGATAAAAGAACATCCACGGAGTCACCTAGTGCAG”, the binding signal is reported as 20000 fluorescence intensity (a.u.). With “CTGATTTCCATTAGTTAGGTTATCAAATGTGTTAAGAGCACGGAGTCACCTAGTGCAG” the binding signal was 12900 fluorescence intensity (a.u.). In the case of “CGGACCATACATAATCAGTTAATCACAGAATCTACACAGCCGGAGTCACCTAGTGCAG”, the binding signal is reported as 6350 fluorescence intensity (a.u.). With “CCTGACAGATGAGCTCCCCACCATGCCGAGCTACCGCCTACGGAGTCACCTAGTGCAG” the binding signal was 19800 fluorescence intensity (a.u.). In the case of “TAAATTATACCAATTAATTAAGTTTTGATCTATCAACACTCGGAGTCACCTAGTGCAG”, the binding signal is reported as 33400 fluorescence intensity (a.u.). “GTGTTTAATTAATTTATACATAGTACTATATGGATATATCCGGAGTCACCTAGTGCAG” was tested, and the binding signal was 25900 fluorescence intensity (a.u.). In the case of “ATTAACGGGAAAATCTAGGTTGATTGTTCGTGTTAAATTACGGAGTCACCTAGTGCAG”, the binding signal is reported as 6690 fluorescence intensity (a.u.). In the case of “AGATTAGATTAAAATCCTATTTCTTGCGATAGAATGTGGCCGGAGTCACCTAGTGCAG”, the binding signal is reported as 8340 fluorescence intensity (a.u.). With “GTGAGATTAAATGTCAGGGAACCGAAATTCAGTCATGCAGCGGAGTCACCTAGTGCAG” the binding signal was 5380 fluorescence intensity (a.u.). In the case of “AAGCAAACGGTAGAGAGTTGTGATTGGTTGAGTAGTAGAGCGGAGTCACCTAGTGCAG”, the binding signal is reported as 3680 fluorescence intensity (a.u.). With “CAATAATAAGCTGATTTGTTTTCTATCGGAATATATCCATCGGAGTCACCTAGTGCAG” the binding signal was 6380 fluorescence intensity (a.u.). “GTAAAGAATAATTTGGATGATTACCAAATTAATTTTGGTACGGAGTCACCTAGTGCAG” was tested, and the binding signal was 23100 fluorescence intensity (a.u.). In the case of “CCTCTTGTTCGTCTTGCTCTGTTTCTTTCTTGTTCTCTCCCGGAGTCACCTAGTGCAG”, the binding signal is reported as 5560 fluorescence intensity (a.u.). For “CTATTGATTATGATAATTTGAAGTTATATAGCTTGATTTGCGGAGTCACCTAGTGCAG”, the binding signal was 57700 fluorescence intensity (a.u.). For “CTGTAATTAGTTTTCTTATAAATGCCCGAACACTCCATGCCGGAGTCACCTAGTGCAG”, the binding signal was 31900 fluorescence intensity (a.u.). With “CAGTATCATTGACTGTCTCAGATAAGGAGACTAGTCACGCCGGAGTCACCTAGTGCAG” the binding signal was 3550 fluorescence intensity (a.u.). In the case of “CTATAAATTTGACTTTGTTCTAGAGATTATAATAGGTTAACGGAGTCACCTAGTGCAG”, the binding signal is reported as 5590 fluorescence intensity (a.u.). “ACTAGTATTAAATTGACTATAAATGATTTGGAGTTAGTAGCGGAGTCACCTAGTGCAG” was tested, and the binding signal was 26300 fluorescence intensity (a.u.). In the case of “AGCCATTAATAACAATATGTTAACTAGTAATATGTTCGTGCGGAGTCACCTAGTGCAG”, the binding signal is reported as 3790 fluorescence intensity (a.u.).
